Residue numbers refer to the chain shown, from its start. These are yes or no findings as the source states them, for the method shown. For some of these results: Binding seen in cells or lysates may run through a third protein. Some entries that bind do so weakly or less than the wild type. For some of these results: Sequences can lack the tags named with a protein.
Key:
human HA-PAR6α (human) = molecular target: T1, human HA-PAR6α (human) (UniProt Q9NPB6); assay: co-IP; HEK cells transiently transfected with HA::PAR6α and/or human Hook2, lysed after one day; immunoprecipitation with mouse anti-HA or rat anti-Hook2, immunoblot with rabbit anti-Hook2 and anti-HA
T1 sequence: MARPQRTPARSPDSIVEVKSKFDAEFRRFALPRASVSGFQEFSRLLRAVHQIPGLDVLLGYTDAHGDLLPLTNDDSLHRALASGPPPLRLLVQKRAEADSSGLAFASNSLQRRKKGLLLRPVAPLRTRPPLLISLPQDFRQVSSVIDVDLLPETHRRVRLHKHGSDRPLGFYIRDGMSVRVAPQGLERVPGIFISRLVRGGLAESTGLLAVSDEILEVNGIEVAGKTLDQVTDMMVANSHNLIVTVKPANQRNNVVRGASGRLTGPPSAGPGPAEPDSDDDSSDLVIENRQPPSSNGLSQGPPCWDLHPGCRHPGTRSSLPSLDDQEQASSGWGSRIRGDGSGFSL

[1] = molecular target: T2, endogenous human Hook2 (HEK cells) (human (endogenous in HEK)) (UniProt Q96ED9); assay: as above
T2 sequence: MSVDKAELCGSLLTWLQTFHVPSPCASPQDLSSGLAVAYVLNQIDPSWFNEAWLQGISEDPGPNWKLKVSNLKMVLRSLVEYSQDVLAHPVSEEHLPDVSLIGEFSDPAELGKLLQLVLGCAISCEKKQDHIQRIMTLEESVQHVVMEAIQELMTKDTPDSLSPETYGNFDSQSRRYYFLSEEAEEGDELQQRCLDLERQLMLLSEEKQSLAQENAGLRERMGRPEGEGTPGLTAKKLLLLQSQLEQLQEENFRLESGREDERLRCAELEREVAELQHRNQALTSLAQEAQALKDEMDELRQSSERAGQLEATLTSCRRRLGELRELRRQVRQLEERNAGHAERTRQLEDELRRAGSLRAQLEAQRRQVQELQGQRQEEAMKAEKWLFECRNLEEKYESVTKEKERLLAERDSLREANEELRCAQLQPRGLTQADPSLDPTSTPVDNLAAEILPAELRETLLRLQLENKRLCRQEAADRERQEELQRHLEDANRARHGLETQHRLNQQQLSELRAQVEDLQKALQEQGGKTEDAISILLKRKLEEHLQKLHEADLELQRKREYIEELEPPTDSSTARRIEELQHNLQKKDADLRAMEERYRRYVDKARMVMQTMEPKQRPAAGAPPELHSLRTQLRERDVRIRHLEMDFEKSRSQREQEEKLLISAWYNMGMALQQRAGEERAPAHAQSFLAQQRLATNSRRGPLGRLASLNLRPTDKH

[2] = molecular target: T3, human Hook2 (overexpressed) (human) (UniProt Q96ED9); assay: as above
T3 sequence: T2 sequence

[3] = molecular target: T4, human Hook2 Cter (amino acids 438 to 719), LexA two-hybrid bait (human) (UniProt Q96ED9); assay: two-hybrid; L40 yeast, LexA system; Hook2 Cter in pBTM116 as bait, PAR6α variants in pACT2; selection without tryptophan, leucine and histidine with 10 mM and 5 mM 3-aminotriazole; second selection on X-Gal medium
T4 sequence: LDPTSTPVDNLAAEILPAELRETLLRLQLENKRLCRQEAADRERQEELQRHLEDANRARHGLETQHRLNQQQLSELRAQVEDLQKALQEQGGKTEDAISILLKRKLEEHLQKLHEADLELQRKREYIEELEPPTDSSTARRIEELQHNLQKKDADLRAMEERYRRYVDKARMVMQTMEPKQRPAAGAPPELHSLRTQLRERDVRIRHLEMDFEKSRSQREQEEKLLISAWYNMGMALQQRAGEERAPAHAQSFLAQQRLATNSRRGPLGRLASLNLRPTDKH

[4] = molecular target: T5, GST-PAR6α Nter (1–133 amino acids) (human) (UniProt Q9NPB6); assay: pull-down; GST fusion proteins or GST alone incubated with lysates of MCF7 cells transfected with siCT or siHook2 for 3 days; immunoblot; only the target purified
T5 sequence: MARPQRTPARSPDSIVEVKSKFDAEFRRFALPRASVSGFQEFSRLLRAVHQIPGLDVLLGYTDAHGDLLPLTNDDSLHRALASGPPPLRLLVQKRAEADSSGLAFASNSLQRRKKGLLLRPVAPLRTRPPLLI

[5] = molecular target: T6, GST-PAR6α Nter K19A (human) (UniProt Q9NPB6); assay: as above
T6 sequence: T5 sequence with K19A

B1: human Hook2 (overexpressed) (protein, UniProt Q96ED9 1-719)
chain: T2 sequence
binding (human HA-PAR6α (human)): binds

B2: human HA-PAR6α (protein, UniProt Q9NPB6 1-346)
chain: T1 sequence
binding [1]: binds | binding [2]: binds

B3: human PAR6α WT, two-hybrid prey (protein, UniProt Q9NPB6 1-346)
chain: T1 sequence
binding [3]: binds

B4: endogenous Hook2 (MCF7 cells) (protein, UniProt Q96ED9 1-719)
chain: T2 sequence
binding [4]: binds | binding [5]: no binding

B5: human PAR6α PDZ, two-hybrid prey (domain or fragment, UniProt Q9NPB6 157-250)
chain: RVRLHKHGSDRPLGFYIRDGMSVRVAPQGLERVPGIFISRLVRGGLAESTGLLAVSDEILEVNGIEVAGKTLDQVTDMMVANSHNLIVTVKPAN
binding [3]: no binding
